Among all 220,000 compounds or so, about 2,300 (1%) were called active. The inconclusive results got no clear call from the source; some entries with a clear call stand among them for comparison. Calls follow the shape of the dose curve; as a rule, active = well fitted inhibition curve with a large enough effect; inconclusive = small, poorly fitted or top-dose-only effect, or effect the other way; inactive = no such curve, though single readings can be large or run the other way. Where the call is inconclusive, the potency comes from a doubtful curve fit. The source holds several records for some structures; these can differ, active in one and inactive in another.
Target: Neuropeptide S receptor (Homo sapiens) (UniProt Q6W5P4)
Test: qHTS Assay for Antagonists of the Neuropeptide S Receptor: cAMP Signal Transduction; also: nearly all actives have a fitted effect of over 50% in size
Conditions: CHO-NPSR cells, cAMP TR-FRET, antagonist mode; activity change, negative = inhibition: at 38.3 µM (top of the series) unless noted
% is scaled to controls: 0 for no effect and ±100 for the full control effect; potency is read from the fitted curve at half-maximal effect; tags tell the direction and shape of the fitted curve.

Sequence of UniProt Q6W5P4 (Q6W5P4 whole entry, looked up): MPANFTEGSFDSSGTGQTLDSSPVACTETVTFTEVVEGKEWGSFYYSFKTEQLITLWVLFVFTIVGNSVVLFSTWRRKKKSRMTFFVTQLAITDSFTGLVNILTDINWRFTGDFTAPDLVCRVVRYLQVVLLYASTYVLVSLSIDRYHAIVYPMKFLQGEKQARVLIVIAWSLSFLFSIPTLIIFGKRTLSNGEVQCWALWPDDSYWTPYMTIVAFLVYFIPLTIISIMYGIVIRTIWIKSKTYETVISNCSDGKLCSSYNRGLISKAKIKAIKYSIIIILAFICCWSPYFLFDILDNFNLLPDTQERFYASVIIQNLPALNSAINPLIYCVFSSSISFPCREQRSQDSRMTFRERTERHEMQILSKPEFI

| SMILES | Potency | activity change, negative = inhibition |
| --- | --- | --- |
| CCCN(Cc1cc2cc(C)ccc2[nH]c1=O)C(=O)c1ccccn1 | inactive |  |
| CC(C)(C)c1ccc(N=C2SCC(=O)N2Cc2cccs2)cc1 | inconclusive: 12.6 µM [activator, partial curve] |  |
| CC(C)c1nc2sc3c(SCC(=O)NCc4ccco4)ncnc3c2c2c1CCC2 | inconclusive: 25.1 µM [inhibitor, single point] |  |
| Cn1c(SCC(=O)N2CCN(c3ccccc3)CC2)nnc1-c1ccccc1 | inconclusive: 0.501 µM [inhibitor, partial curve, poor fit] |  |
| Cc1cc(/C=C2\C(=N)N3N=CSC3=NC2=O)c(C)n1Cc1ccccc1 | inconclusive: 12.6 µM [inhibitor, single point] |  |
| CC(=O)Nc1ccc(/C=C2\Sc3ccccc3C2=O)cc1 | inactive |  |
| O=C(O)CSc1nnc(COc2ccc([N+](=O)[O-])cc2)n1-c1ccccc1 | inactive |  |
| Nc1c(C(=O)NCc2ccco2)c2nc3ccccc3nc2n1CCc1ccc(F)cc1 | inconclusive: 10 µM [inhibitor, single point] |  |
| O=c1n(Cc2ccc(Cl)cc2)c2sc3c(c2c2ncnn12)CCCC3 | inconclusive: 25.1 µM [inhibitor, single point] |  |
| CCCn1c(/N=C/c2ccc3c(c2)OCO3)nc2ccccc21 | inactive |  |
| O=C(c1cc(-c2ccco2)on1)N1CCCc2ccccc21 | inactive |  |
| COc1ccccc1-n1cnc2cc(NCc3cccs3)ccc21 | inconclusive: 12.6 µM [activator, single point] |  |
| O=[N+]([O-])c1cccc(/C=N/Nc2nc(C(Cl)(Cl)Cl)nc3ccccc23)c1 | inconclusive: 10 µM [inhibitor, single point] |  |
| CCOc1ccc2cc(/C=C/C(=O)c3ccco3)c(Cl)nc2c1 | inconclusive: 12.6 µM [inhibitor, single point] |  |
| COc1ccc(C(=O)c2oc3ccccc3c2N)cc1 | inactive |  |
| O=C(NC(=S)Nc1ccccc1N1CCCC1)c1ccco1 | inconclusive: 25.1 µM [activator, single point] |  |
| O=C(NC1CCCCC1)C(c1ccc(F)cc1)N(CCc1ccccc1)C(=O)CN1C(=O)c2ccccc2S1(=O)=O (stereo unspecified) | inconclusive: 12.6 µM [inhibitor, single point] |  |
| CCc1ccc2[nH]c(=O)c(CN(Cc3ccc4c(c3)OCO4)Cc3nnnn3C3CCCC3)cc2c1 | inconclusive: 25.1 µM [inhibitor, single point] |  |
| CCOC(=O)c1ccc(N=c2sc(C(=O)OC)cc(=O)n2CCCN2CCOCC2)cc1 | active: 12.6 µM |  |
| Cc1ccc(N=C2NC(=O)/C(=C/c3cccn3C)S2)cc1 | inconclusive: 20 µM [inhibitor, single point] |  |
| O=C(OCC(=O)N1CCN(C(=O)c2ccco2)CC1)c1cc(-c2ccc(Cl)c(Cl)c2Cl)nc2ccccc12 | active: 10 µM |  |
| CCOc1ccc(Nc2nc(Cc3nnc(SCC(=O)NCc4ccco4)n3CC)cs2)cc1 | inactive |  |
| O=C(NC1CCCC1)C(c1cccnc1)N(C(=O)c1csnn1)C1CCCC1 (stereo unspecified) | inactive |  |
| CCOC(=O)c1ccc(NC(=O)C(C)N2C(=O)c3ccccc3C2=O)cc1 (stereo unspecified) | inconclusive: 15.8 µM [inhibitor, partial curve] |  |

| SMILES | Potency | activity change, negative = inhibition |
| --- | --- | --- |
| O=C(O)Cc1ccc(C(=O)c2ccccc2F)s1 | inactive |  |
| Cc1ccc(C)c(NC(=S)NC(NC(=O)N(C)C)C(Cl)(Cl)Cl)c1 (stereo unspecified) | inactive |  |
| CCOc1ccc(C(=O)c2cc([N+](=O)[O-])ccc2Cl)cc1 | inconclusive: 12.6 µM [inhibitor, single point] |  |
| COc1ccc(-c2nc(N3CCOCC3)nc3n[nH]c(N)c23)cc1 | inactive |  |
| C=CCN1C(c2ccccc2)=CS/C1=C(/C#N)c1nnc(N2CCOCC2)n1-c1ccccc1 | inactive |  |
| CCN(CCS(=O)(=O)c1ccc(Cl)cc1)C(=O)Nc1ccccc1 | inconclusive: 3.98 µM [activator, single point] |  |
| COc1ccc(C(C)=O)cc1CSc1nnc(-c2ccc(Cl)cc2)n1-c1ccccc1 | inconclusive: 10 µM [inhibitor, single point] |  |
| Cc1cc(NC(=O)c2noc3c2CCCC3)nn1Cc1ccc(Cl)cc1 | inconclusive: 10 µM [inhibitor, partial curve] |  |
| N=C(N)SCc1ccc(O)c([N+](=O)[O-])c1 | inconclusive: 25.1 µM [activator, single point] |  |
| O=C(NCc1ccc(F)cc1)c1ccc(CS(=O)(=O)Cc2ccc(F)cc2)o1 | inconclusive: 12.6 µM [inhibitor, partial curve] |  |
| COc1ccc(NC(=O)CSc2nc3c(c(=O)n2-c2ccc(F)cc2)SCC3)cc1 | inconclusive: 5.01 µM [inhibitor, single point] |  |
| O=c1c2c3nc4ccccc4nc3n(/N=C/c3ccncc3)c2ncn1-c1ccccc1 | inconclusive: 25.1 µM [inhibitor, single point] |  |
| COc1ccc(CCNC(=O)CCCn2c(SCC#N)nc3ccccc3c2=O)cc1OC | inactive |  |
| COC(=O)c1ccc(COc2ccc(C3C4=C(CCCC4=O)Nc4onc(C)c43)cc2)cc1 (stereo unspecified) | inconclusive: 12.6 µM [inhibitor, single point] |  |
| Cc1cc(C)cc(NS(=O)(=O)c2cc(C(=O)NCc3ccccn3)ccc2Cl)c1 | inactive |  |
| CCC(C)(C)n1nnnc1C(c1cccs1)N1CCc2ccccc21 (stereo unspecified) | inconclusive: 12.6 µM [inhibitor, single point] |  |
| Cc1nn(-c2ccccc2)c(C)c1C(=O)Oc1ccccc1 | inconclusive: 10 µM [activator, single point] |  |
| CN(C(=O)c1ccncc1)c1nnc(-c2cnccn2)s1 | inactive |  |
| O=C(C(Sc1ccccc1)c1ccccc1)N1CCN(c2ccccc2F)CC1 (stereo unspecified) | inconclusive: 0.501 µM [inhibitor, full curve, poor fit] |  |
| Cn1nnc(NC(=S)NC(=O)c2cc3ccccc3o2)n1 | inactive |  |
| O=C(CCc1ccc(S(=O)(=O)N2CCOCC2)cc1)Nc1ccc2c(c1)OCCO2 | inactive |  |
| CN(C)c1ccc(/C=N/NC(=O)C(=O)/C=C2\NC3(CCCC3)Cc3ccccc32)cc1 | inactive |  |
| CCc1ccc(/C=N/NC(=O)c2ccccn2)cc1 | inactive |  |
| OC(CCN1CCCCC1)(c1ccccc1)C1CCCCC1 (stereo unspecified) |  | inconclusive: -30.7% [inhibitor] [at 46.1 µM] |

| SMILES | Potency | activity change, negative = inhibition |
| --- | --- | --- |
| NC(=S)N/N=C/c1ncc(C(F)(F)F)cc1Cl | inconclusive: 2 µM [activator, full curve] |  |
| CCOc1ccccc1N(C(=O)c1snc(C(N)=O)c1N)C(C(=O)NC1CCCC1)c1ccco1 (stereo unspecified) | inconclusive: 5.01 µM [inhibitor, single point] |  |
| CC(NC(=O)CCCCCCN1C(=O)c2ccccc2C1=O)c1ccc2c(c1)CCCC2 (stereo unspecified) | inconclusive: 15.8 µM [inhibitor, single point] |  |
| CC(C)c1nc(C(=O)N2CCc3c([nH]c4ccccc34)C2c2ccccn2)cs1 (stereo unspecified) | inconclusive: 12.6 µM [activator, partial curve] |  |
| Cc1noc(C)c1COC(=O)Cc1ccc(Cl)c(Cl)c1 | inactive |  |
| COc1cccc(CSc2nc3ccccc3cc2C=O)c1 | inconclusive: 1.58 µM [activator, full curve, poor fit] |  |
| CC(C)Nc1nnc(SCC(=O)NCc2ccc3c(c2)OCO3)s1 | inactive |  |
| CCOC(=O)c1sc(C)c2c1NC(c1ccc(Cl)cc1)NC2=O (stereo unspecified) | inconclusive: 12.6 µM [inhibitor, single point] |  |
| CCCCOc1ccc(C(=O)N/C(=C\c2ccc(OC)cc2)C(=O)OCc2ccco2)cc1 | inconclusive: 12.6 µM [inhibitor, partial curve] |  |
| Cc1ccc(SCC(=O)NC(=O)Nc2ccc3c(c2)OCCO3)cc1C | inactive |  |
| O=C(c1ccc(F)cc1)C(CCCCCC(CN1CCOCC1)C(=O)c1ccc(F)cc1)CN1CCOCC1 (stereo unspecified) | inconclusive: 10 µM [inhibitor, partial curve] |  |
| CCOC(=O)CSc1nnc(CSc2nc(N)c3c(C)c(C)sc3n2)n1-c1ccccc1 | inconclusive: 12.6 µM [inhibitor, single point] |  |
| CCOc1ccc(-n2c(CCc3ccccc3)n[nH]c2=S)cc1 | inconclusive: 12.6 µM [activator, single point] |  |
| COc1ccc(CCNC(=O)c2ccc3c(c2)OCCO3)cc1 | inactive |  |
| CCc1cccc2c(C#N)cn(CCOc3ccccc3OC)c12 | inconclusive: 12.6 µM [inhibitor, partial curve] |  |
| O=C(Nc1nc2ccc(SC(F)F)cc2s1)c1ccc(NS(=O)(=O)c2ccc(F)c(F)c2)cc1 | active: 12.6 µM |  |
| CC(C)(C)c1cc(C(F)(F)F)nc(SCCCNC(=O)c2ccco2)n1 | inconclusive: 15.8 µM [inhibitor, single point] |  |
| CC(=O)SC(C[N+](=O)[O-])c1cn(C(C)=O)c2ccccc12 (stereo unspecified) | inconclusive: 12.6 µM [inhibitor, single point] |  |
| CN1\C(=C/C=C/C=C/C=[N+](C)C)C(C)(C)c2ccccc21 | active: 10 µM |  |
| CSc1cc(-c2ccc(Cl)cc2)n(Cc2ccccc2)c(=O)c1C#N | inconclusive: 10 µM [inhibitor, single point] |  |
| Cc1cc(C)cc(NC(=O)CSc2nnc(CNC(=O)c3cccs3)o2)c1 | inconclusive: 25.1 µM [inhibitor, single point] |  |
| COc1cc(/C=N/NC(=S)Nc2cccc(C(=O)O)c2)ccc1O | inactive |  |
| Cc1ccc2oc(=O)n(Cc3ccccc3OC(C)C)c2c1 | inconclusive: 15.8 µM [inhibitor, partial curve, poor fit] |  |

Reference: PubChem BioAssay AID1461 (National Center for Advancing Translational Sciences (NCATS), 2008)
